Experimental data taken from the supplement of paper PMC4967469.
Lines with a small IC50 respond at low doses; fits outside the tested doses are given as limits. For AUC the same curve is integrated over the 256-fold range of doses and scaled to a fraction; values near 1 show little effect. The top dose, if marked as inferred, was calculated from the reported fits.

Legend:
Assay in all cases: Viability of human cancer cell lines after 72 h of drug (GDSC screen)
CAY10603 = compound: CC(C)(C)OC(=O)Nc1ccc(-c2cc(C(=O)NCCCCCCC(=O)NO)no2)cc1 [CAY10603]; conditions: top dose 20 µM; top dose inferred
Protocol: (§1)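 Human cancer cell lines in 384-well plates, medium with 10% serum, drug for 72 h over a 256-fold dose range (nine 2-fold or five 4-fold steps up to the top dose). Adherent lines were fixed and stained with the nucleic acid dye Syto60, suspension lines read with resazurin; signal relative to control wells, capped at 0 and 100%. One two-parameter sigmoid per drug and line, fitted in a mixed model over all curves with the slope shared within a line.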

CH5424802 = compound: CCc1cc2c(cc1N1CCC(N3CCOCC3)CC1)C(C)(C)c1[nH]c3cc(C#N)ccc3c1C2=O [CH5424802]; conditions: top dose 5.12 µM; top dose inferred
Protocol: as §1

ACHP (KIN001-260) = compound: N#Cc1c(C2CCNCC2)cc(-c2c(O)cccc2OCC2CC2)nc1N [ACHP (KIN001-260)]; conditions: top dose 20 µM; top dose inferred
Protocol: as §1

Cell Line	AUC (CAY10603)	IC50 (CAY10603) [µM]	AUC (CH5424802)	IC50 (CH5424802) [µM]	AUC (ACHP (KIN001-260))	IC50 (ACHP (KIN001-260)) [µM]
OPM-2 (myeloma, suspension)	0.299	0.386	0.899	4.39	0.879	14.1
OSC-19 (head and neck, adherent)	0.491	1.18	0.977	> 5.12	0.969	> 20
OSC-20 (head and neck, adherent)	0.544	1.69	0.971	> 5.12	0.98	> 20
OVCAR-5 (ovary, adherent)	0.469	1.01	0.963	> 5.12	0.974	> 20
OVMIU (ovary, adherent)	0.485	1.13	0.963	> 5.12	0.942	> 20
P12-ICHIKAWA (T-cell lymphoblastic leukaemia, suspension)	0.183	0.192	0.89	3.59	0.973	> 20
P30-OHK (lymphoblastic leukaemia, suspension)	0.232	0.247	0.976	> 5.12	0.866	13.1
P31-FUJ (acute myeloid leukaemia, suspension)	0.634	2.66	0.996	> 5.12	0.994	> 20
P32-ISH (Burkitt lymphoma, suspension)	0.221	0.252	0.994	> 5.12	0.963	> 20
PA-1 (ovary, adherent)	0.131	0.129	0.987	> 5.12	0.911	17.5
PA-TU-8902 (pancreas, adherent)	0.527	1.5	0.98	> 5.12	0.968	> 20
PA-TU-8988T (pancreas, adherent)	0.759	7.01	0.986	> 5.12	0.978	> 20
PANC-03-27 (pancreas, adherent)	0.57	1.91	0.988	> 5.12	0.962	> 20
PANC-04-03 (pancreas, adherent)	0.921	> 20	0.943	> 5.12	0.972	> 20
PANC-08-13 (pancreas, adherent)	0.746	7.91	0.958	> 5.12	0.944	> 20
PANC-10-05 (pancreas, adherent)	0.521	1.45	0.973	> 5.12	0.981	> 20
PC-3 (prostate, adherent)	0.526	1.49	0.977	> 5.12	0.956	> 20
PC-3 [JPC-3] (lung adenocarcinoma, adherent)	0.679	4.69	0.894	> 5.12	0.928	> 20
PCI-15A (head and neck, adherent)	0.979	> 20	0.984	> 5.12	0.975	> 20

Cell Line	AUC (CAY10603)	IC50 (CAY10603) [µM]	AUC (CH5424802)	IC50 (CH5424802) [µM]	AUC (ACHP (KIN001-260))	IC50 (ACHP (KIN001-260)) [µM]
PCI-38 (head and neck, adherent)	0.611	2.52	0.977	> 5.12	0.964	> 20
PE/CA-PJ15 (head and neck, adherent)	0.698	4.74	0.981	> 5.12	0.979	> 20
PF-382 (T-cell lymphoblastic leukaemia, suspension)	0.257	0.281	0.984	> 5.12	0.944	> 20
PL18 (pancreas, adherent)	0.684	4.06	0.985	> 5.12	0.983	> 20
PSN1 (pancreas, adherent)	0.269	0.314	0.988	> 5.12	0.947	> 20
QIMR-WIL (acute myeloid leukaemia, suspension)	0.228	0.208	0.979	> 5.12	0.868	17.4
RCC10RGB (kidney, adherent)	0.699	7.92	0.972	> 5.12	0.934	> 20
RD (rhabdomyosarcoma, adherent)	0.452	0.915	0.972	> 5.12	0.963	> 20
REH (B-cell leukaemia, suspension)	0.254	0.255	0.769	1.85	0.889	> 20
RERF-GC-1B (stomach, adherent)	0.815	12.7	0.969	> 5.12	0.981	> 20
RF-48 (stomach, adherent)	0.227	0.178	0.982	> 5.12	0.767	8.32
RH-41 (rhabdomyosarcoma, adherent)	0.548	1.65	0.992	> 5.12	0.992	> 20
RMG-I (ovary, adherent)	0.583	2.2	0.983	> 5.12	0.952	> 20
ROS-50 (B-cell leukaemia, suspension)	0.593	2.42	0.967	> 5.12	0.878	> 20
RPMI-2650 (head and neck, adherent)	0.477	1.08	0.984	> 5.12	0.973	> 20
RPMI-6666 (Hodgkin lymphoma, suspension)	0.261	0.221	0.917	> 5.12	0.749	7.68
RPMI-8226 (myeloma, suspension)	0.435	0.852	0.936	> 5.12	0.927	> 20
RT-112 (bladder, adherent)	0.564	1.9	0.977	> 5.12	0.984	> 20
